The source of these data is the RNAGym collection of RNA variant scans (doi:10.1101/gad.245936.114).

This sample is rich in variants without activity.

The chains are these.
B1: tRNA (parent)
chain: CUCUCGGUAGCCAAGUUGGUUUAAGGCGCAAGACUUUAAUUUAUCACUACGAAAUCUUGAGAUCGGGCGUUCGACUCGCCCCCGGGAGAUUUUUUCCUCGAGCAA

Variants of B1 are the subject of the data set. The experiment in a line: nonsense suppression (GFP-seq) (ratio to wild type); higher = more function; SUP4oc tRNA, yeast GFP reporter sort-seq. Summed up: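 Each variant's nonsense suppression (GFPSEQ) is a cell-share-weighted bin median GFP/RFP relative to the unmutated parent tRNA. Yeast with genome-integrated tRNA variants from a ~3% random-mutation library, a galactose-driven GFP ochre reporter and RFP were grown in raffinose/galactose medium with 80 mg/L adenine, then sorted into GFP/RFP bins for Illumina sequencing. Variants needed ≥100 reads and ≥30 cells.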
As for C11G U71C G78C, the nonsense suppression was at most 0.026.
To C3A C29U A87G belongs at most 0.026; to U4G A24C G67U, at most 0.026; to G15U C56A A60U, at most 0.026.
As for G7A A13G A74C G88A, the nonsense suppression was at most 0.026.
Under G66A C77U stands at most 0.026; under U57A C79A A87U, at most 0.026.
Under C5A A9G U21C A24U G25U U35G stands at most 0.026.
Under U17G G66U G69A stands at most 0.026.
For G26U C34U G84C G88C, the nonsense suppression is at most 0.026.
U16A G32A G69A: the nonsense suppression was at most 0.026.
With U16G U20A C27A, the nonsense suppression was at most 0.026.
To C5A G25C A33G belongs at most 0.026.
Under C56A A62C C77A G84A stands at most 0.026; under G10U C27G C79A, at most 0.026; under A54G U76G, at most 0.026.
For A9G U35A C80G, the nonsense suppression is at most 0.026.
To C3U A9U G86U belongs at most 0.026.
For the variant C11G A24G G69A A74G, the nonsense suppression was at most 0.026.
Under A54U U76C stands 1.08; under C5U U35G C72A G85A, at most 0.026; under A62G C72G A87C, at most 0.026.
To U8A A23G C80G G84C belongs at most 0.026; to G19C G73C, at most 0.026.
Under C11U G69U stands at most 0.026; under G25C G61A C80A, at most 0.026.
With C77A C80A, the nonsense suppression was at most 0.026.
Under C12G A30G C82G stands at most 0.026; under U2A C34U, at most 0.026; under G10C A87C A89U, at most 0.026.
To G18A A54G U58A belongs at most 0.026; to C34U C77G C79G A89U, at most 0.026; to G25C U76G, at most 0.026.
Under U4G C12U C72U stands at most 0.026; under U35G U76G C82G G85U, at most 0.026; under C29U A60U C77A, at most 0.026.
On to U8A A54U U76C A87C, for which the nonsense suppression was at most 0.026.
To A9U G19C U21A U22G G65A belongs at most 0.026; to C5A C64A U71A C75A C80G, at most 0.026.
To U76G C83A belongs at most 0.026; to G19A A30G A62G, at most 0.026; to C27U C34U, at most 0.026.
Under U35G A60C G61C stands at most 0.026; under G15A U22G G32C, at most 0.026.
Turning to C1G U20G A23U C27A U76A G88U, the nonsense suppression is at most 0.026.
To A24C G73C G84C belongs at most 0.026; to A14G U20C G88U, at most 0.026.
Under C5U G7A C11G stands at most 0.026; under U4A U22C G66A A74U, at most 0.026.
For C1U C83A, the nonsense suppression was at most 0.026.
To G61U C68A belongs at most 0.026; to U4C C80A, at most 0.026; to C5G G19C A87G, at most 0.026.
Under U2G G67A stands at most 0.026.
For C5A G85C, the nonsense suppression was at most 0.026.
As for U35G A54U G66C, the nonsense suppression is at most 0.026.
To G10U C12G A31U G32U C68G belongs at most 0.026; to C3G G84U, at most 0.026; to A9U C81G A87C, at most 0.026.
To G7C A13U G26U C77U belongs at most 0.026.
Under U20G U21A stands 1.18; under U20G U21G, 0.75.
As to G66U U71A, the nonsense suppression is at most 0.026.
Consider G67C G73C G88A A89U, for which the nonsense suppression was at most 0.026.
Under C3U A24U U55C G69A stands at most 0.026; under A33C C34U C75G, at most 0.026; under U17G A30U, 0.0613.
Under C1A C81U stands 0.045.
On to G85A G88C, for which the nonsense suppression was at most 0.026.
Under G69U C77A stands at most 0.026; under G86C A87G, 0.0881; under G25U U35G, at most 0.026.
To C3U A9U C29U G65C G86A belongs at most 0.026; to G19C U20A A24C G88C, at most 0.026.
Under G10U U57A stands at most 0.026; under U70G, at most 0.026.
Turning to G61C C68U A74C, the nonsense suppression is at most 0.026.
To G73A A89C belongs 0.0768; to A13G U16G C27A, at most 0.026.
To A14C G15C C56U C81A belongs at most 0.026; to U35G C68G A89G, at most 0.026.
Under G28C G61A G86A stands at most 0.026.
Regarding A9U G88C, the nonsense suppression was at most 0.026.
Under C5U A9U A31C G73A stands at most 0.026; under A13U U22G A31C A33G, at most 0.026.
As to C3A G7A A33U, the nonsense suppression was at most 0.026.
To C1A U70C C79A belongs at most 0.026; to C56A G65C U71A, at most 0.026; to G7C G15C C29A U63C, at most 0.026.
As to C5G G7U A54C, the nonsense suppression is at most 0.026.
Turning to C12A U35A, the nonsense suppression was at most 0.026.
Consider G61C A62C, for which the nonsense suppression was at most 0.026.
Under U22G U35G U55C A74G stands at most 0.026; under C1G C3G A9G C56A G59A A62C, at most 0.026.
As for U2C U4G A13U U22C A33G, the nonsense suppression was at most 0.026.
C34A G61C A74G: the nonsense suppression is at most 0.026.
To G19C U55C A89U belongs at most 0.026; to U22C C27A, at most 0.026; to A62G U71C, at most 0.026.
For C11A A13C, the nonsense suppression was at most 0.026.
Under U4G C27G C68G stands at most 0.026.
For G15C U17C, the nonsense suppression is at most 0.026.
Under A54U A60C stands 0.279; under A54U A60U, 0.965; under A87G, 1.16.
Under G28C U57C stands 0.0349; under A24U U70A G86A, at most 0.026.
Under U21A C27G C34G C68G stands at most 0.026; under U17A A23C G25U G59C A60G G61C, at most 0.026.
Take G18U G32C: the nonsense suppression was at most 0.026.
For the variant C11G C77A, the nonsense suppression was at most 0.026.
In the case of U17G A31C U35G C64A, the nonsense suppression is at most 0.026.
For G67A U76A, the nonsense suppression is at most 0.026.
To U4G A74C belongs at most 0.026; to A23G A30G, at most 0.026; to U2A C27U C29U G88A, at most 0.026.
To G10U U17C belongs at most 0.026; to A9U C29A A30C G86C, at most 0.026.
Consider A9C C11A C75A, for which the nonsense suppression was at most 0.026.
Regarding U2C A23G, the nonsense suppression stood at 0.0274.
For the variant G32U U58G, the nonsense suppression is at most 0.026.
Under C77U C79U stands at most 0.026; under G18C U63G G66U, at most 0.026.
Regarding U22C A54G, the nonsense suppression was at most 0.026.
Turning to C5A A14C A54C C72A A87C, the nonsense suppression is at most 0.026.
Under U20C G86C stands at most 0.026.
For G26C G61C, the nonsense suppression was at most 0.026.
Regarding G6U U16C U76A, the nonsense suppression is at most 0.026.
To U16C A31G belongs 1.07; to C5G U63G, at most 0.026; to A31C U58A A60U G65U G78C C81G A89G, at most 0.026.
To G69A C82G belongs at most 0.026; to A54U C81A, at most 0.026.
Under G15U G69C G78C stands at most 0.026; under C27U C56G A74G, at most 0.026; under C12A C34G, at most 0.026.
Regarding C1G U8G U63C G73U, the nonsense suppression was at most 0.026.
To A24C A87G belongs 0.479; to G7U A62U, at most 0.026.
To A9G G15A G19U A31C U55C U58G belongs at most 0.026; to U8A G65C, at most 0.026.
U16A G26A: the nonsense suppression was at most 0.026.
Under G61A C77G stands at most 0.026; under A13U U16A G85U, 0.173.
To A9U A31U G69U G78U G86U belongs at most 0.026.
Regarding C3U A9U A30G A54U G67A, the nonsense suppression is at most 0.026.
Under A54G U71A stands at most 0.026; under G19C U22G, at most 0.026.
With U8G A23G G67A U71C C77U, the nonsense suppression is at most 0.026.
Consider C29G A62G C79U, for which the nonsense suppression was at most 0.026.
Under G19C G67A stands at most 0.026; under G66A G86U, at most 0.026; under A23C G84U, at most 0.026.
Under C3A G7C G65C stands at most 0.026; under A31U C81G, at most 0.026.
To G10C C34A belongs at most 0.026; to U8C G65A C72G, at most 0.026; to C27G A87G G88C, at most 0.026.
On to A24U C27G, for which the nonsense suppression was at most 0.026.
Under U35G C56A U57C U58A C81U stands at most 0.026; under C5U C12A, at most 0.026; under C34A G78C, at most 0.026.
To A9G U22G C34G C72U belongs at most 0.026; to A9G U16A C34G C77G, at most 0.026.
To G19A A33U belongs at most 0.026; to U4C U20G U21C C79A, at most 0.026; to G59U U63C, 0.868.
